# From the supplement of paper PMC3334620
# The full ranking holds about 33,000 sequences; the median of “E-score (-0.5 to 0.5)” is about -0.043, and the highest 2% start at about 0.37. The list shows a part of the results.
# Target: T1, Upc2 (UniProt Q12151)
# T1 sequence: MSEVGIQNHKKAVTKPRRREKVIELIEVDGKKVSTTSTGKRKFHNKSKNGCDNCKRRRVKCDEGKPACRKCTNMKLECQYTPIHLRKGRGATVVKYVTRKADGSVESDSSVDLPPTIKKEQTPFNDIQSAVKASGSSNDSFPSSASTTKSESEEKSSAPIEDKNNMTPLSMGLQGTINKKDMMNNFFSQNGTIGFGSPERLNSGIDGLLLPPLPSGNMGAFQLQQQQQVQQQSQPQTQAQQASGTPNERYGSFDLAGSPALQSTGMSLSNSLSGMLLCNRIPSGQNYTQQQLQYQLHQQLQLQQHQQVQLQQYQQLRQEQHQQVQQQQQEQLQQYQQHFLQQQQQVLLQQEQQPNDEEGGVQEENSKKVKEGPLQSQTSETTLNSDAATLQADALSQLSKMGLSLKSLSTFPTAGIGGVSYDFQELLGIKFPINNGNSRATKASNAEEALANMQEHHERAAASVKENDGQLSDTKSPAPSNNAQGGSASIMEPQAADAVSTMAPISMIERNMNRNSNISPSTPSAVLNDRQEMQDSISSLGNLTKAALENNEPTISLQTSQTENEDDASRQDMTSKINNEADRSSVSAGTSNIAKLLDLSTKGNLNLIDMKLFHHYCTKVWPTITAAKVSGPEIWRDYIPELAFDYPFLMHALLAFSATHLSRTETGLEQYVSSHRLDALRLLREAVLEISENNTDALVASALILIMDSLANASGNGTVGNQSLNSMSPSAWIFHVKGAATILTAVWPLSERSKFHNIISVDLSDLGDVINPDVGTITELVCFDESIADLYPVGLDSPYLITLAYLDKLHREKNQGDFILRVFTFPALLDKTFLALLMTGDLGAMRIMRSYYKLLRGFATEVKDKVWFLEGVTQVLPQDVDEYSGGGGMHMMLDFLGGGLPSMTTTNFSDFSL
# Experiment: PBM E-score (8-mer binding enrichment) (E-score (-0.5 to 0.5)); higher = stronger / more preferred TF binding; most listed sequences are background and not binding sites
# Conditions: protein concentration: 200 nM; construct: GST-full length
# Method in brief: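 The E-score, a modified Wilcoxon-Mann-Whitney statistic, was computed by the Universal PBM Analysis Suite for every ungapped eight-base word pooled with its reverse complement. Scans behind it were normalised with masliner after bound GST-tagged yeast transcription factors were detected with fluorescent anti-GST. The proteins, at about 100-200 nM, had been applied to universal all-10-mer Agilent arrays made double-stranded by primer extension.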
row,Sequence,PBM E-score
1,ATAGGGGG,-0.16
2,ACGACAGT,0.37
3,AATACTCA,-0.0838
4,TACGCGCA,0.279
5,AGTCTGGC,-0.157
6,CGAACATC,0.136
7,GTCCCAGA,0.0257
8,CCCGCGTA,0.141
9,CTCGGTAC,0.242
10,TACCGGAA,-0.116
11,CCCGACAA,0.0724
12,CTAGGACC,-0.202
13,AGTAGAGA,-0.103
14,GAGCGGGC,-0.0683
15,AGGATGAA,-0.116
16,ATGGGCAC,-0.111
17,GCGCTCAC,-0.0386
18,ACAATGGG,-0.00604
19,AGTATAAA,0.238
20,CGTCTGTA,0.0994
21,GAAACCCA,-0.0512
22,CTTAACAA,-0.00049
23,AGTCCCGG,-0.235
24,AAAGCTCA,-0.0475
25,AGACAATC,-0.134

row,Sequence,PBM E-score
1,ACAGATCG,-0.0319
2,CTGCACGC,-0.268
3,AAGCCTAG,0.0183
4,TGAGACCA,-0.195
5,ATCTGTTG,-0.199
6,AGCTGCGG,-0.00084
7,GCGCTATA,0.152
8,CACGTTAA,0.131
9,CGTAGGAC,0.0465
10,GACACAAA,-0.113
11,CCTTTCTA,-0.0882
12,ACAAGAAA,-0.0102
13,ACCAGGAC,-0.0418
14,AGGCGAGA,-0.153
15,AGAATGAG,-0.212
16,CCACGTCG,0.0289
17,AGAATCAC,-0.166
18,GCTTACTA,-0.0799
19,ACAACGGG,0.0146
20,CGACTAGA,-0.0944
21,CCAGGCTA,-0.185
22,ACTCACCG,-0.0668
23,CGGAATCC,-0.229
24,CTCGTGCA,0.0879
25,CGCGATAC,0.267

row,Sequence,PBM E-score
1,AATCCATA,0.0162
2,CATTTGAC,-0.304
3,CCGACGGA,-0.0042
4,GTAGGACA,-0.0315
5,CTTGAGCA,-0.197
6,ACGGCAAT,0.147
7,GCGACTCA,-0.0769
8,GGAACAAA,0.139
9,GAAAATTA,0.0345
10,CAGGCTCG,0.153
11,TCACGTGA,0.0354
12,GTCCCAAA,0.0572
13,CTAACTAC,-0.133
14,CCTACATC,-0.233
15,GCTCATCA,-0.195
16,ACAGACAC,-0.0608
17,CGTGCTTA,-0.0674
18,ACTATTCT,-0.114
19,GCCATCCC,-0.187
20,CTCGCGTC,0.109
21,CAATATAC,0.278
22,AGTTGACA,-0.149
23,ACCGCATA,0.149
24,CCGGCGTC,-0.00021
25,ACACCGAT,-0.105

row,Sequence,PBM E-score
1,TGAGCAAA,-0.0755
2,AGAACGCA,0.014
3,TCGATCAA,-0.0204
4,CAAGCTGC,-0.149
5,CCAAGGAC,-0.247
6,CAATAACA,-0.225
7,AGTGCTAC,-0.0322
8,AGAATTGC,-0.0676
9,ATGTCCGC,-0.0951
10,CTGTCTGA,-0.241
11,TCTGTCAA,-0.0976
12,CTCGTATC,0.473
13,CGGTTTCC,0.00269
14,CAACAGTC,-0.262
15,AATCACGA,-0.0445
16,CCCTAGGA,-0.27
17,AGGTACAT,-0.102
18,TTAGATAA,0.0648
19,CGTGCATA,-0.0557
20,ATAAGGTG,-0.0317
21,GACATCGC,0.126
22,ATGGTCCA,-0.166
23,TCGGACAA,0.126
24,GAATTATC,0.127
25,CACAAAAC,0.0778

row,Sequence,PBM E-score
1,CCCCATCC,0.0739
2,TATACTCA,0.207
3,CCGAAGAA,-0.127
4,ACGAACCC,0.301
5,GCCAAACC,-0.137
6,GTGAGACA,-0.221
7,ATCCTATC,-0.186
8,ATAGGAAA,-0.00053
9,AGTCCTTC,-0.162
10,ATAATTTC,-0.0201
11,GCTCCTCA,-0.203
12,AGTCAGTA,0.117
13,CGATGCCG,-0.0899
14,CCCATCCA,-0.0182
15,CAAAGCAA,0.0363
16,CGAGCGGC,0.13
17,GAGCTAAC,0.00917
18,AGTCAGTC,-0.0718
19,AATTCCGG,-0.124
20,ACCCCAAT,-0.139
21,GCCGGCCA,-0.205
22,ACTCAACC,-0.0568
23,GTAGTACA,-0.0187
24,ATCACGAT,-0.122
25,ACGCTAAG,0.0293

row,Sequence,PBM E-score
1,GGACAGGA,-0.0824
2,ATCGAAGG,0.0344
3,GTGTGAAA,-0.143
4,AACTTGAG,-0.0698
5,ATGTGCTA,-0.0598
6,AGTAACTC,-0.0313
7,GTCCCACA,-0.0951
8,CATCCACA,-0.0464
9,CGACCATC,0.123
10,CTATCTGA,-0.0219
11,GCCGTCGC,0.142
12,ACGCTTTA,0.201
13,TAATCTGA,-0.124
14,CGATTTCC,0.104
15,CAGGTCAC,-0.333
16,GGCAGATA,0.00284
17,CCCACCGA,-0.162
18,CAGGCGAC,-0.308
19,AGTGTGGG,-0.207
20,GGCGATTA,-0.0121
21,AGCAAAGG,0.00827
22,AATGCTAA,-0.0517
23,ACGCAGAG,0.0958
24,GGTTAAGA,0.0134
25,GGTGAAAC,0.114

row,Sequence,PBM E-score
1,TCAGATCA,-0.262
2,GTACGAGA,0.472
3,ACATGACC,-0.0302
4,AGTAAGAC,-0.0724
5,GAAACTCC,-0.189
6,CTTTTATC,0.00372
7,ATTTCGAA,0.126
8,CTTGTCCC,-0.148
9,AGCAAATA,-0.127
10,GGCTCTAA,0.018
11,CAAGGGTC,-0.229
12,CGTAACGC,0.324
13,AGGTCAAG,-0.298
14,CCCGCTTA,0.218
15,GCAGCTCC,-0.189
16,CAGCCATG,-0.19
17,GTTGCGTA,0.244
18,CGAAATAC,0.243
19,AAGCTATA,0.106
20,ATCTCGTA,0.464
21,AACGGAGT,0.229
22,ACGTAAGC,0.137
